Measurements from PubChem BioAssay AID504333 (National Center for Advancing Translational Sciences (NCATS), 2011).
The campaign covered roughly 360,000 compounds. About 16,000 (4.4%) were called active. The inconclusive results got no clear call from the source; some entries with a clear call stand among them for comparison. Calls come from the whole dose curve; as a rule, active = well fitted inhibition curve with a large enough effect; inconclusive = small, poorly fitted or top-dose-only effect; inactive = no such curve, though single readings can be large or run the other way. Potencies of inconclusive entries are doubtful fits and often do not repeat.

The compounds below were run against Bromodomain adjacent to zinc finger domain protein 2B (Homo sapiens) (UniProt Q9UIF8) (assay: qHTS Assay for Inhibitors of BAZ2B). Conditions: AlphaScreen BAZ2B-H3K14Ac peptide displacement; series mostly up to 114 µM.
Sequence of UniProt Q9UIF8 (Q9UIF8 whole entry, looked up, the tested form may be a part): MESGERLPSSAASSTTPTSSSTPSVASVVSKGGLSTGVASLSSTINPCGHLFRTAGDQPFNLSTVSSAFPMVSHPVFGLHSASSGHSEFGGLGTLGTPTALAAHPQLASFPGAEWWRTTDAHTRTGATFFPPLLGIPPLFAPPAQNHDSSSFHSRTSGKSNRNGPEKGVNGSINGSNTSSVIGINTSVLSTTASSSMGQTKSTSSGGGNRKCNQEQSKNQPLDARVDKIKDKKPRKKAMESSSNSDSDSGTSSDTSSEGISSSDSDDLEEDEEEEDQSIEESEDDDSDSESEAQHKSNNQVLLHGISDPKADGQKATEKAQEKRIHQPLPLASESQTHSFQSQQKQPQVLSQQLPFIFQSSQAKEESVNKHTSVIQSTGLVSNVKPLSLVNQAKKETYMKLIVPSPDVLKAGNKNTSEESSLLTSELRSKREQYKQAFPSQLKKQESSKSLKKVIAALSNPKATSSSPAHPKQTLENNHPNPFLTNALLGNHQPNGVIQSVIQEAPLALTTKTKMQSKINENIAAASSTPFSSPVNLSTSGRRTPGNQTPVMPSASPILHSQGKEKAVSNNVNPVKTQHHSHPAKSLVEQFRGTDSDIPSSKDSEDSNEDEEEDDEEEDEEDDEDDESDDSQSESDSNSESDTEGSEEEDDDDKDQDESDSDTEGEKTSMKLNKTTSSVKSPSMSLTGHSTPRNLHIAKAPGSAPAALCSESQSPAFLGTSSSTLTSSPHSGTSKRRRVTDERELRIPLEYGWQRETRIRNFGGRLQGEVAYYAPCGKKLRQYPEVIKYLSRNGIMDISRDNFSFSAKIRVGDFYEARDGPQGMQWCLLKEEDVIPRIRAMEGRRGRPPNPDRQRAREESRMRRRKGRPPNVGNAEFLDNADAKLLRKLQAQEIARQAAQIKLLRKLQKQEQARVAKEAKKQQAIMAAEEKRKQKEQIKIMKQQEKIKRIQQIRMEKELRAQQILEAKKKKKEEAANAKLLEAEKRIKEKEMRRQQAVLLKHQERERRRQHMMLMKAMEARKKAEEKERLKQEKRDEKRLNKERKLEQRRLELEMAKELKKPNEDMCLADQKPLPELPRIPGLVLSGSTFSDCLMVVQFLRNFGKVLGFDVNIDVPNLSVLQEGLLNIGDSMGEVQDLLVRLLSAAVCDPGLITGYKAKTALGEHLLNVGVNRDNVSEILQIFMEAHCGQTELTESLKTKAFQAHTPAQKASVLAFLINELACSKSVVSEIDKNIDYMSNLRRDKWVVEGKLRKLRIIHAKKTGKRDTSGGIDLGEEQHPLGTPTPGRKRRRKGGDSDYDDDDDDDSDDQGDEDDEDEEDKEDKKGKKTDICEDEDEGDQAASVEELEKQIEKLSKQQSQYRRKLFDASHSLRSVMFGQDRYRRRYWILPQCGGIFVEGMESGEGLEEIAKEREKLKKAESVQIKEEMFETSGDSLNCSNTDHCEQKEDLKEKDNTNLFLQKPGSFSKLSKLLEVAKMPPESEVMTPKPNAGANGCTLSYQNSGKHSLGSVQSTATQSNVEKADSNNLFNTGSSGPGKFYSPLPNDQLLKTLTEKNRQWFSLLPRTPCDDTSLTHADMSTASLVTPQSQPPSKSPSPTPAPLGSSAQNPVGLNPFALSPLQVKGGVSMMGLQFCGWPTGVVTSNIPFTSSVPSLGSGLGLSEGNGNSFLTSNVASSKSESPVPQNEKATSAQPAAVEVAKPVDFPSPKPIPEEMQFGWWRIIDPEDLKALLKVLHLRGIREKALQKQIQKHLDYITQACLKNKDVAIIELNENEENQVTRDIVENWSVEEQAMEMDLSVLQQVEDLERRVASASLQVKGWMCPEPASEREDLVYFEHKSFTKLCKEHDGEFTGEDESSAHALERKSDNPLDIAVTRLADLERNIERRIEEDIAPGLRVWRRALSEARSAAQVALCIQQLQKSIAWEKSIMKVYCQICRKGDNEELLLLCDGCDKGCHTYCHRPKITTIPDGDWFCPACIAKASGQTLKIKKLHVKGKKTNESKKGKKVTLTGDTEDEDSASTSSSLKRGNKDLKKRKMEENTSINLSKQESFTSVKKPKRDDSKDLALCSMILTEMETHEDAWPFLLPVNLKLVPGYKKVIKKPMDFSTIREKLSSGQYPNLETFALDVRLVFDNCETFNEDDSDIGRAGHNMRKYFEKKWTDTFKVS
Method in brief: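 Compounds, titrated to a top concentration of 110 uM, were incubated 30 min at room temperature with preformed BAZ2B/acetyl-K14 H3 peptide complex (50 nM each). Proximity signal was measured by AlphaScreen after 20 min with beads.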
Note: nearly all actives have a fitted effect of over 60% in size.
Potency is the fitted concentration of half-maximal effect; tags give direction and shape of the fitted curve.

Row | SMILES | Potency
1 | COc1ccccc1/C=C/C=C1N=C(/C=C/c2ccc(Cl)cc2)OC/1=O | inconclusive: 10 µM [inhibitor, partial curve]
2 | Cc1cc[n+](-c2[nH]c(=O)sc2/C=N/N=C(\[O-])c2ccccc2)cc1 | active: 50.1 µM
3 | N#Cc1nc(-c2ccccc2Cl)oc1NCc1ccco1 | active: 50.1 µM
4 | O=[N+]([O-])c1ccc(Cl)c(-c2ccc(/C=N/n3cnnc3)o2)c1 | inconclusive: 89.1 µM [inhibitor, single point]
5 | COc1cc(CN2CCSCC2)c([N+](=O)[O-])cc1OC | inconclusive: 89.1 µM [inhibitor, single point]
6 | Cc1nc(N/N=C/c2ccccn2)sc1C | inconclusive: 70.8 µM [inhibitor, single point]
7 | Cc1cc(C(=O)CSc2nc3ccccc3[nH]2)c(C)n1Cc1ccco1 | inconclusive: 44.7 µM [inhibitor, partial curve]
8 | CCN(CC)C1=C(Cl)C(=O)C(Cl)C12OCCO2 (stereo not drawn) | inconclusive: 89.1 µM [inhibitor, single point]
9 | Cc1ccccc1NC(=O)c1nc(S(C)(=O)=O)ncc1N(Cc1ccco1)Cc1sccc1C | inactive
10 | Cc1ccccc1OCC(=O)Nc1ccc(C(=O)OCc2cc(=O)n3ccsc3n2)cc1 | inactive
11 | O=[N+]([O-])c1cc(C(F)(F)F)ccc1N1CCC(O)CC1 | inconclusive: 89.1 µM [inhibitor, single point]
12 | O=C(NNS(=O)(=O)c1ccccc1[N+](=O)[O-])c1cccnc1 | inconclusive: 89.1 µM [inhibitor, single point]
13 | CCc1ccc(/C=C2/SC(N3CCOCC3)=NC2=O)cc1 | inactive
14 | OCCN1CCN(c2cc(-c3ccccc3)c3ccccc3n2)CC1 | active: 39.8 µM
15 | CSCCC(NC(=O)c1ccccc1Cl)C(=O)Nc1ccncc1 (stereo not drawn) | inactive
16 | CCC(=O)NC(NC(=S)Nc1ccccc1Br)C(Cl)(Cl)Cl (stereo not drawn) | inactive
17 | COc1cc(/C=N/Nc2nc3ccccc3[nH]2)cc(OC)c1O | inconclusive: 79.4 µM [inhibitor, single point]
18 | O=C(NCCS(=O)(=O)N1CCN(Cc2ccccc2)CC1)c1ccc(F)cc1 | inactive
19 | C/C=C/C(=O)N1CC2(CC(c3cccc(NC(=O)CCCCC)c3)=NO2)C[C@H]1C(N)=O (stereo partly drawn) | inconclusive: 89.1 µM [inhibitor, single point]
20 | NC(=O)c1c(NC(=O)c2cc(-c3ccc(F)cc3)on2)sc2c1CCCC2 | inactive
21 | CCC(C(=O)Nc1ccc(C(C)C)cc1)n1nc(C)n2c(cc3cc(C)ccc32)c1=O (stereo not drawn) | inactive
22 | COC(=O)c1ccc2[nH]c3c(c2c1)CC(C)CC3 (stereo not drawn) | active: 25.1 µM
23 | COCc1cc(=O)[nH]c(/N=C(\N)Nc2cccc(Cl)c2)n1 | inactive
24 | CN(C)CCN1C(=O)c2ccccc2C1=O | inconclusive: 39.8 µM [inhibitor, single point]
25 | CCN1C(=NCc2cc(OC)c(OC)c(OC)c2)N[C@@H](c2cccc(F)c2)C(C(=O)OC)=C1C | inconclusive: 89.1 µM [inhibitor, single point]

Row | SMILES | Potency
26 | CCOC(=O)c1sc2nc3c(SCC(=O)O)cc(C(=O)c4ccccc4O)cn3c(=O)c2c1C | active: 15.8 µM
27 | CC1=C(/C=N/Nc2ccc([N+](=O)[O-])cc2[N+](=O)[O-])C(C)(C)CCC1 | active: 3.55 µM
28 | COc1ccc(NC(=O)Nc2cccs2)cc1OC | inconclusive: 50.1 µM [inhibitor, partial curve]
29 | COC(=O)c1ccc(NC(=S)NCc2ccco2)cc1 | inconclusive: 35.5 µM [inhibitor, full curve]
30 | CCOC(=O)c1ccc(NC2(c3ccccc3)C(=O)c3ccccc3C2=O)cc1 | inactive
31 | COc1cccc(Cn2c(Oc3cccc(C)c3)nc3c2c(=O)n(C)c(=O)n3C)c1 | inconclusive: 50.1 µM [inhibitor, partial curve]
32 | COc1ccc(-n2c(Cc3cccn3C)nnc2SCC(=O)N2CCCC2)cc1 | inactive
33 | COc1ccccc1C(=O)Nc1nnc(S(=O)(=O)N2CCN(c3ccc(F)cc3)CC2)s1 | inconclusive: 31.6 µM [inhibitor, partial curve]
34 | CSc1cccc(NC(=S)N(Cc2ccc(C)cc2)Cc2ccccn2)c1 | inconclusive: 28.2 µM [inhibitor, partial curve]
35 | NC(=O)c1nc[nH]c1C(=O)Nc1cccc(C(F)(F)F)c1 | inconclusive: 89.1 µM [inhibitor, single point]
36 | O=C1NC(=S)S/C1=C\c1ccc(SCc2ccco2)o1 | active: 17.8 µM
37 | COc1ccc(/C=C/C(=O)Nc2cccc(S(=O)(=O)NC3=NCCCCC3)c2)c(OC)c1 | inactive
38 | CCC1C(O)=C(c2ccccn2)C(=N)N1c1ccccc1 (stereo not drawn) | inconclusive: 89.1 µM [inhibitor, single point]
39 | COc1cc(SC)ccc1C(=O)OC(C)C(=O)NC1CCCC1 (stereo not drawn) | inconclusive: 89.1 µM [inhibitor, single point]
40 | COc1cc2c(cc1OC)-c1cc(Nc3ccc4c(c3)OCCO4)nc(=O)n1CC2 | inconclusive: 100 µM [inhibitor, single point]
41 | Cc1c(N=C2C=CC(=O)c3ccccc32)c(=O)n(-c2ccccc2)n1C | active: 28.2 µM
42 | Cc1nc(Nc2ccccc2)sc1C(=O)c1ccc(F)cc1 | inconclusive: 89.1 µM [inhibitor, single point]
43 | Cc1ccn2c(C(=O)NN=C3CCN(C)CC3)c(C)nc2c1 | inconclusive: 89.1 µM [inhibitor, single point]
44 | Cc1cc(NCCCn2ccnc2)n2c(nc3ccccc32)c1C#N | inactive
45 | O=C(c1ccc(CNS(=O)(=O)c2ccc(Br)cc2)cc1)N1CCCCC1 | inconclusive: 1.41 µM [inhibitor, full curve, poor fit]
46 | CC1=N/C(=C\c2ccc([N+](=O)[O-])cc2)C(=O)N1c1ccc(F)cc1F | inconclusive: 39.8 µM [inhibitor, partial curve]
47 | CC(C)CN(Cc1cc(=O)oc2cc(-c3ccccc3)c(O)cc12)CC(C)C | inactive
48 | CCOc1ccc(-n2ccnc2SCC(=O)Nc2cccc3ccccc23)cc1 | inconclusive: 8.91 µM [inhibitor, partial curve]
49 | Cc1nnc(-c2ccc(Oc3ccc(Br)cc3)c([N+](=O)[O-])c2)o1 | inconclusive: 79.4 µM [inhibitor, single point]
50 | O=[N+]([O-])c1cccc(N/N=C/c2cccc(O)c2O)c1 | inconclusive: 44.7 µM [inhibitor, partial curve]

Row | SMILES | Potency
51 | COc1ccc(C(=O)N/C(=C\c2ccco2)C(=O)NCCCn2ccnc2)cc1 | inconclusive: 79.4 µM [inhibitor, single point]
52 | Nc1nc(CN2CCN(Cc3ccccc3)CC2)nc(Nc2ccc3c(c2)OCCO3)n1 | active: 20 µM
53 | CCN1CCN(c2ncc3c(n2)CCN(CC(C)C)C3)CC1 | inconclusive: 89.1 µM [inhibitor, single point]
54 | CSc1ccc(NC(=O)C2CCN(c3ncccn3)CC2)cc1 | inactive
55 | Oc1[nH]c(=S)sc1/C=C1\C(c2ccccc2)=Nc2ccccc21 | inconclusive: 39.8 µM [inhibitor, partial curve]
56 | Cc1c(C)n(CC(O)CN2C(=O)c3ccccc3S2(=O)=O)c2ccccc12 (stereo not drawn) | inconclusive: 50.1 µM [inhibitor, partial curve]
57 | COc1cc(CNCc2ccccn2)ccc1OCc1cccc(Cl)c1 | inconclusive: 79.4 µM [inhibitor, single point]
58 | Cc1ccc(N(C)C(=O)c2ccc3c(Cl)c4c(nc3c2)CCC4)cc1C | inconclusive: 70.8 µM [inhibitor, single point]
59 | O=C(OCn1ncc(Br)c(Br)c1=O)c1ccc(F)cc1 | inactive
60 | COc1ccc(-n2cc(-c3ccccc3)nc2SCC(=O)Nc2ccccc2C)cc1 | inconclusive: 28.2 µM [inhibitor, full curve, poor fit]
61 | COc1cc(OC)c(NS(=O)(=O)c2c(C(=O)N3CCCCCC3)c(C)n(C)c2C)cc1Cl | inconclusive: 89.1 µM [inhibitor, single point]
62 | CC(Oc1cccc(Cl)c1)C(=O)N(C)CC(=O)Nc1ccc(N2CCOCC2)cc1 (stereo not drawn) | inactive
63 | COc1ccccc1-c1nc(C#N)c(N2CCN(Cc3ccccc3)CC2)o1 | active: 28.2 µM
64 | O=C(N/N=C/c1ccc([N+](=O)[O-])s1)c1ccccc1 | inconclusive: 89.1 µM [inhibitor, single point]
65 | CC(=O)c1cc(C(=O)N2CCc3c([nH]c4ccccc34)C2C2CCCCC2)[nH]n1 (stereo not drawn) | inconclusive: 44.7 µM [inhibitor, partial curve]
66 | COc1ccccc1OCC(=O)N(Cc1cccs1)C1CCS(=O)(=O)C1 (stereo not drawn) | inactive
67 | COC(=O)c1[nH]c2cc(OC)ccc2c1NC(=O)c1c(F)cccc1F | inactive
68 | CN1C(=O)/C(=C\c2ccc(-c3ccccc3)o2)SC1=S | inconclusive: 2.51 µM [inhibitor, full curve]
69 | CCCn1cc(S(=O)(=O)CC(=O)N2CCc3ccccc32)c2ccccc21 | inactive
70 | C=CCn1c(C)cc(-c2csc(N)n2)c1C | active: 50.1 µM
71 | Cc1ccc(Nc2c3c(nc4nc(-c5cccs5)nn24)CCCC3)cc1F | inconclusive: 28.2 µM [inhibitor, full curve]
72 | Nc1nc(SCc2ccc3c(c2)OCCO3)n[nH]1 | inconclusive: 89.1 µM [inhibitor, single point]
73 | COc1ccc(N(C(=O)c2cnccn2)C(C(=O)NC2CCCCC2)c2cc(OC)c(OC)c(OC)c2)cc1 (stereo not drawn) | inactive
